The source gives no read counts; variants with many changes may rest on few reads.
B1: LINE1-mini (parent)
chain: GGCAGAGCUCAACACAGCGUGGCAAAGUGGCUGUGGCUAGACUGCC

Variants of: B1
Test: self-cleavage, relative activity (ratio to wild type); higher = more cleavage; in vitro, sequencing; the parent is a self-cleaving ribozyme

Variant | self-cleavage
G2C G33C U43C | 0.01
G2C G33U C42U | 0.02
G2C G35A C45A | 0.13
G2C G35C A41U | 0.02
G2C G35C U38A | 0.02
G2C G36C G40A C42U | 0.02
G2C G40U C42U U43A | 0.13
G2C U9A A12G | 0.02
G2C U9A A24C A25U A39G G40U | 0.08
G2C U9A C15U G22C A41C | 0.02
G2C U9A C37A | 0.09
G2C U9A G21U C45A | 0.42
G2C U9A G27C | 0.19
G2C U9C A14G C37A | 0.04
G2C U9C C37U | 0.03
G2C U9C G19C A24C | 0.01
G2C U9C G22A A25G | 0
G2C U9G A16C U43A | 0.03
G2C U9G A24U G40U | 0.08
G2C U9G C10U G22U G29C | 0.01
G2C U9G C13A C18A | 0.02
G2C U9G U43A | 0.04
G2C U20A A25U G27C | 0.03
G2C U20C G35A C46A | 0.02

Variant | self-cleavage
G2C U20C G44A | 0.08
G2C U20G A24G G33A G36U G40U U43C | 0.03
G2C U28A U32G A39U C42U | 0.03
G2C U38A C45A | 0.06
G2U A4C A26G U34A C46A | 0.02
G2U A4C G5U | 0.1
G2U A4C G29C U38G | 0.06
G2U A4G A6G C10A A11G G29U G40U | 0.01
G2U A4G A12C A16C G30U U34A | 0.01
G2U A4G A12C C13A | 0.01
G2U A4G A12U G35C C46A | 0.09
G2U A4G C31U | 0
G2U A4G C42U | 0.18
G2U A4G G5A A14C G22C | 0.03
G2U A4G G7A | 0.04
G2U A4G G7U A11G G22U C46A | 0.01
G2U A4G G7U C8G | 0.08
G2U A4G G17C C31G | 0.02
G2U A4U C15U G27U G29C U34C | 0.01
G2U A4U C42A | 0.11
G2U A4U G5U C8U C23A G33U U43G | 0.08
G2U A4U G21U | 0.06
G2U A4U G27U G36A | 0.18
G2U A6C A12C G30C U32G U34G C45G | 0.01

Variant | self-cleavage
G2U A6C C15U U32C | 0.02
G2U A6C C18A G30A | 0.02
G2U A6C U9G A12U C31U | 0.01
G2U A6C U28C G35C | 0.01
G2U A6C U34C C45U | 0.01
G2U A6G A11G C13G A16U G35U G40C | 0.02
G2U A6G A24G G27A G33U | 0.03
G2U A6G C10A C18G | 0
G2U A6G G22U | 0.03
G2U A6U A11C A14C G17U C31A | 0.02
G2U A6U A12C C23U U32G G35A A39G C45G | 0.01
G2U A6U A41G | 0.2
G2U A6U C10A | 0.09
G2U A6U C23U A24G A26U | 0.06
G2U A6U G7U | 0.03
G2U A6U G36U C45G | 0.02
G2U A11C C13G U32C | 0.01
G2U A11G A12U A25G U38A | 0.01
G2U A11G C13U C18G | 0.04
G2U A11G G17A C45A | 0.01
G2U A11G G21A G22A | 0
G2U A11G G29U | 0.01
G2U A11G G36A | 0.01
G2U A12C C13U A24U G29U | 0.04

Variant | self-cleavage
G2U A12C C18G U34C | 0
G2U A12C C46A | 0.01
G2U A12C G19U | 0.04
G2U A12C G21U A26G G36C | 0.01
G2U A12C G36U | 0.04
G2U A12C G36U A39C | 0.03
G2U A12C G40A | 0.01
G2U A12G C23G | 0.01
G2U A12G C42U | 0.39
G2U A12G G35A | 0.01
G2U A12G U34A G44U | 0
G2U A12U C13A G40U A41U | 0.03
G2U A12U G17U A24G | 0.02
G2U A12U G21C U28A | 0.04
G2U A12U G27C G44U | 0.02
G2U A14C A16U C18U A26U | 0.01
G2U A14C G30U | 0.04
G2U A14U C31U | 0.05
G2U A14U G19U G21U A41C C42A C46A | 0.05
G2U A14U G33C | 0.01
G2U A16C U28G G30C | 0.03
G2U A16G A26U G30A | 0.02
G2U A16G C37G G40U | 0.02
G2U A16G G22C A24C C46U | 0.03

Variant | self-cleavage
G2U A16G U20G G44A | 0
G2U A16G U28A A41G | 0.02
G2U A16U A26C U43A | 0.08
G2U A16U G19U U20C G36C C37U C42G | 0.02
G2U A16U U43A C46A | 0.01
G2U A24U C31A G35A | 0.01
G2U A24U G35A U43G G44A C46U | 0.12
G2U A24U U38C | 0.02
G2U A25G G44C | 0.08
G2U A25U G35U C42G G44A | 0.02
G2U A25U G35U C45G | 0.05
G2U A25U G40C G44U | 0.02
G2U A26C C37U | 0.03
G2U A26C G27U | 0.03
G2U A26G C37U A39U | 0
G2U A26G G33U G35C | 0.01
G2U A39G C46G | 0.01
G2U A39U C42A | 0.09
G2U C3A A4G A6G | 0.12
G2U C3A A6G A16C G22U C31A | 0.13
G2U C3A A11G U20C G29U A39G | 0
G2U C3A A14G G19U A24G C42U | 1.44
G2U C3A A14G G36A | 0.11
G2U C3A A14U C18A G22U U28A G30U | 0.03

Variant | self-cleavage
G2U C3A A25C C46A | 0.03
G2U C3A A25G | 0.12
G2U C3A A39G C46U | 0.03
G2U C3A C13A A16C G22U A26G U28C C42G U43C | 0.01
G2U C3A C13A U34G C46A | 0.04
G2U C3A C23G G36A | 0.68
G2U C3A G5U | 0.13
G2U C3A G7C A16C G17A U32C G40U | 0.09
G2U C3A G7C A16U A26U U28G | 0.06
G2U C3A G19U C42G | 0
G2U C3A G22C G27C U28A G33U | 0.13
G2U C3A G22C G27U | 0.73
G2U C3A G29U U43A | 0.47
G2U C3A G35C | 0.02
G2U C3A U9C C31A A39U | 0.01
G2U C3G A4G C42U | 0.22
G2U C3G C31A | 0.07
G2U C3G G7C U38G | 0.03
G2U C3G G40U | 0.03
G2U C3U C37U | 0.04
G2U C3U G27C G36U A41C | 0.03
G2U C8A A26C G27U U34A | 0.08
G2U C8A C10A G19C | 0
G2U C8A C10G G27C A41U | 0.01

Variant | self-cleavage
G2U C8A C10U A16C G36U A39C | 0.02
G2U C8A G17U C45A | 0.04
G2U C8A G30C G40U | 0.01
G2U C8A G36A C42U | 0.06
G2U C8A U38C A39U | 0.06
G2U C8G C15G G17A C42A U43C | 0.01
G2U C8G U34G G36A | 0.04
G2U C8U A12U G29A | 0.17
G2U C8U C10U C18G C45U | 0.01
G2U C8U C10U U32C A41C | 0.04
G2U C8U C37U G40A | 0.01
G2U C8U G17A G29A | 0.03
G2U C8U G27A G30C U43C | 0.2
G2U C8U G44U | 0.46
G2U C10A A11G G19A C37U C42U U43C | 0.01
G2U C10A A12G C18G G30U G40C | 0
G2U C10A G17A C31U C37A | 0
G2U C10A G19A A25U A41G | 0
G2U C10A G27A | 0.01
G2U C10A G30C C46U | 0
G2U C10A G30U C31U | 0
G2U C10A G30U U38A | 0.02
G2U C10A G40U C46G | 0
